According to the supplement of paper PMC3334620:
In all, about 33,000 sequences were measured (“E-score (-0.5 to 0.5)”: median about -0.053, highest 2% from about 0.37 on). The list shows a part of the results.

target: Hap1 (UniProt P0CE41); experiment: PBM E-score (8-mer binding enrichment) (E-score (-0.5 to 0.5)); higher = stronger / more preferred TF binding; most listed sequences are background and not binding sites; conditions: protein concentration: 200 nM; construct: GST-DNA-binding domain
How it was run: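 The E-score, a modified Wilcoxon-Mann-Whitney statistic, was computed by the Universal PBM Analysis Suite for every ungapped eight-base word pooled with its reverse complement. Scans behind it were normalised with masliner after bound GST-tagged yeast transcription factors were detected with fluorescent anti-GST. The proteins, at about 100-200 nM, had been applied to universal all-10-mer Agilent arrays made double-stranded by primer extension.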

Chain of UniProt P0CE41 (P0CE41 whole entry, the tested form may be a part): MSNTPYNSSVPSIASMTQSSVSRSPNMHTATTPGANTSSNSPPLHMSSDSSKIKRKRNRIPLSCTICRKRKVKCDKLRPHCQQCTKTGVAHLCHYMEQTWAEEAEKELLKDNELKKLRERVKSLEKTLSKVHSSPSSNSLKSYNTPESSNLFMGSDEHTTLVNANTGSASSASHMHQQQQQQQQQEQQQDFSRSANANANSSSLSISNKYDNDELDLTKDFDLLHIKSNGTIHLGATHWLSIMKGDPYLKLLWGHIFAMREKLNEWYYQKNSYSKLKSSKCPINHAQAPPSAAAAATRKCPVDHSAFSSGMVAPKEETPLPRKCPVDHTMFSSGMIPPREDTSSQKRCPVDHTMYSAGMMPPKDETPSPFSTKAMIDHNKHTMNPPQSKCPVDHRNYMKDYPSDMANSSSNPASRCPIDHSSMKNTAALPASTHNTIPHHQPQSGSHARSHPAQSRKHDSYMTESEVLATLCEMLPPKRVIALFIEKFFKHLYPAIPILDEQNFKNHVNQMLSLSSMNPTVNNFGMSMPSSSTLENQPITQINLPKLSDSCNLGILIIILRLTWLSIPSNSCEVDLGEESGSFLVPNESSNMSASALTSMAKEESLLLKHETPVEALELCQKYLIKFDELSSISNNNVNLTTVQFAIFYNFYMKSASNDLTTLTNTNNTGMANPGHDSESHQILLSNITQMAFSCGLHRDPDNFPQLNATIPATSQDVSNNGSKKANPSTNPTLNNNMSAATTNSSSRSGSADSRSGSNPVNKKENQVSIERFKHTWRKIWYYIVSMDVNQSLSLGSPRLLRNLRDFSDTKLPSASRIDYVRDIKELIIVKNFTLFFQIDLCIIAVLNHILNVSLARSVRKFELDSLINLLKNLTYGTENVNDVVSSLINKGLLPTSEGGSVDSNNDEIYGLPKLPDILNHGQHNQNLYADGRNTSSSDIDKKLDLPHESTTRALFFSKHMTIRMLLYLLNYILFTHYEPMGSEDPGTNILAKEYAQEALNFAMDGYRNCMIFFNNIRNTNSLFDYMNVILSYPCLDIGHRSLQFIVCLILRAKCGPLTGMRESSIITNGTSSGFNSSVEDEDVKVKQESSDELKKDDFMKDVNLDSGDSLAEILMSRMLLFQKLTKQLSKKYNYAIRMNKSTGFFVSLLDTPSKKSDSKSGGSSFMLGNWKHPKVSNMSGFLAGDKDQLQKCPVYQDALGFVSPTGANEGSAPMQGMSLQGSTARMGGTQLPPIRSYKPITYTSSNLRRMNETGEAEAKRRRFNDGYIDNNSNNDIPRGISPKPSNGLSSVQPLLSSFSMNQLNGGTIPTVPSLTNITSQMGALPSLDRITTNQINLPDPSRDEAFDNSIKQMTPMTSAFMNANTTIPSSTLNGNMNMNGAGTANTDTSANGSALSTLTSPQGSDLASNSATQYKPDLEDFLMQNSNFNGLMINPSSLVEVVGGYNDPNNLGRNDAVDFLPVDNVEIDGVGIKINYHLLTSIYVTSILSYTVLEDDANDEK

Sequence	PBM E-score
CATAGCAA	-0.302
GCGGTGGA	0.0678
AGGCGGAT	0.188
CCTTACTC	0.17
ATTGCGAC	0.0472
CACTTCTC	-0.0463
CTCCCGAG	0.00876
CGGCTGAG	0.157
CGAGTGCA	0.133
AGCTTATC	0.184
CGTAATGC	0.0976
TCAAGAAA	0.0349
AATACCTA	-0.2
AGAAGCAT	-0.159
ATGCTACC	0.14
AAAGCGAT	0.172
CGCTACAG	-0.165
ATTCGATA	0.0211
CAAGACGC	0.109
GGAAAAAA	0.179
CACCAAGG	-0.0753
GAGAAAAA	0.203
TCCGGTAA	0.442
GCCGCAAA	0.259
TATTAGAA	-0.0615

Sequence	PBM E-score
ACCCTAAA	0.0981
AGGAAAAA	-0.185
CCCATGGG	0.165
GCAGGTAC	-0.0844
ACCATGGG	-0.147
GTATACTA	-0.144
ACCCACAG	-0.33
CGCGAATA	0.182
CAGAAATC	-0.0902
CAGACGTC	-0.175
CCGTGAAC	0.18
CGATTTTA	0.125
CAGCGGGA	0.117
AGAAAATC	-0.0625
AGATCGAT	-0.157
ACGATTTC	0.0291
ACACACCG	0.133
ATCAAGTC	-0.111
AGTCTCTG	-0.216
ATATCGAA	0.111
AAGAAAAC	0.0164
ATACGGAC	0.333
ACGATCTC	-0.00674
AAGGTTCT	-0.0171
CTATGTCC	0.274

Sequence	PBM E-score
CCTGGTTC	-0.00675
CGTTTAGA	0.0623
GAGCGCCA	-0.0926
GTAGCAAC	-0.102
CACGTTGG	-0.224
ACGGCGCG	0.193
ATAGCCGC	0.232
CGTCGACC	-0.113
ACTCCATA	-0.151
CACCGCAG	0.0498
AACAGGCA	-0.249
GTCACCCA	-0.158
CTTACACA	-0.297
GTCCACAC	0.0984
GATATATC	0.373
ACTGAGTA	-0.296
CTGGAATA	-0.0682
AAGACCAG	-0.0334
AACTACGC	0.124
ATTCTTGC	-0.0173
GCTCGGAC	0.403
CGTCTGCC	0.088
GCCGGAAC	0.371
ACATTTCA	-0.0859
ATAGTTCA	-0.0608

Sequence	PBM E-score
AATCCCGA	0.409
ATAATGCA	-0.132
ACACCCGG	0.326
AGTTGCAT	-0.0273
ACAGCAAA	-0.151
CGTGGAAA	0.0814
CGCAGCAC	-0.044
AGAGCATA	-0.104
AATATGGG	-0.307
CTTGCTCA	-0.129
ACATACAT	-0.112
CTGCCAAA	-0.0844
CGATTCTA	-0.0641
AAAAGTCC	0.249
AAGAAGGT	0.04
AGTCCACT	-0.297
CTACCGCC	0.209
AAGTCATC	-0.175
AGAAGGCC	-0.00229
AAGAACGG	0.144
AGACCAAG	0.0409
GAATGCAA	0.0554
ACCGGTAC	0.334
CGATAAGC	0.363
TGGAGGAA	-0.217

Sequence	PBM E-score
AGATAGGG	-0.111
ATGCGAAT	-0.0362
AATAATGA	-0.0797
GAAAATGA	-0.0489
CCTTAGCC	-0.0106
TCTAAAGA	-0.116
AACCTTAT	-0.17
ACTCCGGA	0.461
CCAGTCAA	-0.238
AACGGATA	0.398
ACGGGCAC	-0.105
CGCGAGGC	0.113
AATAGATC	0.043
AGAGCAAG	-0.0583
ACACGAGT	-0.0922
GCGGTATA	0.0943
CGTCCATA	0.0108
GGCCACCA	-0.0725
CGGAATTA	0.481
ACCTGATA	-0.172
CCCGTTCA	-0.0488
CCAACAGG	-0.269
CTATATAC	0.0474
AAAGGGGG	-0.176
TTGACAAA	-0.095

Sequence	PBM E-score
ACAATCGT	-0.187
GGTACTAA	0.171
GTGGCTAA	-0.152
ACGATCCC	0.0551
CCAAGCGG	0.0508
ATAACACG	0.0178
ATTTCCCA	-0.131
AGGCATCC	-0.128
GGAAGTTA	0.218
AATCAAAC	-0.11
CCCCCCGG	0.247
GGTTCATA	-0.0158
CGATCTAC	0.034
GTTGCTAA	0.00635
CTGTGAAG	-0.209
CCTGTTAC	-0.146
CGAACAGC	-0.0481
CCCTGTGA	-0.278
ATTGCAAG	-0.214
AGATCACA	-0.0521
AAGGCTAT	-0.0861
AGGCAGAA	-0.0485
CATGTGGC	-0.0312
CCCGAAAG	0.298
AGAGATCC	0.0435

Sequence	PBM E-score
CTAGCCGC	0.0113
CCACTTAC	0.103
GGCGCGCC	0.208
ACTACAAT	-0.0347
CCTGGGGC	-0.0213
AACTGCTC	0.0268
CGCTCTCC	0.122
ACATGAAT	-0.142
CCCCTCCA	-0.198
AGATTCCC	0.11
ACGATGGG	-0.119
CTATAACA	-0.249
TAATCAGA	-0.119
CATTTCAC	-0.0671
CTCCGCAC	0.0685
GCCCTCAC	-0.183
CATCTGCC	-0.0264
AACAGATC	-0.0165
GTTGGCTA	-0.181
ACGCGCCC	0.11
GGGTTACC	0.227
CCATTATC	0.0766
CCAGTCCG	0.278
AGGCTTAT	-0.234
ATAACGGA	0.414

Sequence	PBM E-score
ATAGCCTA	-0.189
GTCTTAGA	-0.162
CGTGCAAC	-0.117
AATACAGG	-0.00816
GCTGCTAA	0.0391
ATCAGATC	-0.102
CAATTGTA	-0.0426
ACAACCCC	0.128
GATGGTAC	-0.099
AGACTACC	0.00543
ATCAAACC	-0.0217
GCATAGCC	-0.114
AACGAGTA	-0.0745
CGTGGATA	0.0211
AAGCGGTC	0.0865
ATCCAGTC	0.0348
GCGGTACA	0.134
ACGTTCAG	-0.278
AGCACACT	-0.0831
CTAACGAA	-0.0184
GGGTGAAC	0.0631
CTGTTCGA	-0.175
AAGTGATT	-0.0267
ATTCCTCC	0.205
CTGTTGCC	-0.223

Sequence	PBM E-score
GACTTTTA	0.00762
ATAGACCG	0.123
CTTCGCTC	0.13
CTGCCGTC	0.101
GAAATCCA	0.11
GGTTAATA	0.154
CAGCTGGG	-0.156
AGGGACTG	-0.157
ATACGCGG	0.217
ACGATTAG	-0.153
GTGTTTAA	0.0435
GCAAAAGA	-0.107
ATAGCCCG	0.173
ATGGGAAA	-0.193
CACTCCAA	-0.136
CAAAAGTC	-0.0737
ATAGCTCC	0.124
GCTATACA	-0.197
ACCATAGT	-0.0861
